Assay results taken from PubChem BioAssay AID2147 (National Center for Advancing Translational Sciences (NCATS), 2009).
Screen size: about 230,000 compounds; about 3,600 (1.6%) were called active. Inconclusive results, whose numbers are uncertain, are shown with a selection of clear calls. The call rests on the fitted dose curve; in most records, active means well fitted inhibition curve with a large enough effect (not every such curve was filed as active); inconclusive means small, poorly fitted or top-dose-only effect, or another doubt; inactive means no such curve, though single readings can be large or run the other way. Potencies of inconclusive entries are doubtful fits and often do not repeat.

biological target: Lysine-specific demethylase 4E (Homo sapiens) (UniProt B2RXH2); test: qHTS Assay for Inhibitors of Human Jumonji Domain Containing 2E (JMJD2E); details: JMJD2E catalytic domain, FDH-coupled NADH fluorescence (FDH is formaldehyde dehydrogenase); series mostly up to 57.1 µM
Further: nearly all actives have a fitted effect of over 50% in size.
Potency means the concentration at half of the fitted maximal effect; tags describe the fitted curve by direction and shape.

Chain of UniProt B2RXH2 (B2RXH2 whole entry, looked up, the tested form may be a part): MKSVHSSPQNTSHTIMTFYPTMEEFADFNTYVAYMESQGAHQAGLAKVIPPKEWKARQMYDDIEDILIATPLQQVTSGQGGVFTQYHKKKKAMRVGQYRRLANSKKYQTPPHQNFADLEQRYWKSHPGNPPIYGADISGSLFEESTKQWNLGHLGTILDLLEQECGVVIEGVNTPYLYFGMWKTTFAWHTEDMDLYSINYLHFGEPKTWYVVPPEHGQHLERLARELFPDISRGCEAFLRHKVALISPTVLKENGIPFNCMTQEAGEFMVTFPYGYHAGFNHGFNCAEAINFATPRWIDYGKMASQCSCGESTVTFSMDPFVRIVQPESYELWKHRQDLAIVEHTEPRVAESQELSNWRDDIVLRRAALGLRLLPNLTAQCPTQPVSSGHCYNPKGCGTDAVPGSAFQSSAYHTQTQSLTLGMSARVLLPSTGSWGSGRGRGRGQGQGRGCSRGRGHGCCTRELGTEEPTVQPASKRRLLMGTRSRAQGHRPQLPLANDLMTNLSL

Row | SMILES | Potency
1 | C(=C\c1nnc(-c2cccs2)o1)/c1ccccc1 | inconclusive: 31.6 µM [inhibitor, partial curve]
2 | O=C(c1ccccc1)c1c[nH]cc1-c1ccccc1 | inactive
3 | C=CCNC(=S)N/N=C/c1ccc(-c2ccc(Br)cc2)o1 | inconclusive: 39.8 µM [inhibitor, single point]
4 | CCS(=O)(=O)N1CCC(C(=O)NCCc2ccc(OC)c(OC)c2)CC1 | inactive
5 | OC(CN1CCN(Cc2ccccc2)CC1)c1ccc(F)cc1 (stereo not given) | inconclusive: 35.5 µM [inhibitor, single point]
6 | N#C/C(=C\c1cccc(Cl)c1)c1n[nH]c(Cn2cncn2)n1 | inconclusive: 25.1 µM [inhibitor, partial curve]
7 | CSc1nnc(-c2sc(-c3ccccc3)nc2C)n1C | inconclusive: 31.6 µM [inhibitor, partial curve]
8 | COc1ccc(/C=N/N=C/c2ccc(OC)c(O)c2)cc1O | inactive
9 | CCCCS(=O)(=O)Nc1ccc(C)cn1 | inconclusive: 28.2 µM [inhibitor, partial curve]
10 | C=CCOc1ccc(C2NC(=S)NC3=C2CCc2ccccc23)cc1 (stereo not given) | inactive
11 | N#CC12CCCCC1CC1CCCCC1(C#N)N2N (stereo not given) | inconclusive: 17.8 µM [inhibitor, partial curve]
12 | O=C1/C(=C/c2ccncc2)SC(=S)N1C1CCS(=O)(=O)C1 (stereo not given) | inconclusive: 39.8 µM [inhibitor, single point]
13 | COc1cccc(C2C(C#N)=C(N)Oc3c2oc(CO)cc3=O)c1 (stereo not given) | inactive
14 | COc1ccc2c(c1)Sc1ccccc1N2CCN(C)C | inconclusive: 39.8 µM [inhibitor, single point]
15 | Cc1cc2n(n1)C(c1ccccc1Cl)Nc1ccccc1-2 (stereo not given) | inconclusive: 35.5 µM [inhibitor, partial curve]
16 | CC(C)=CCC/C(C)=C\COc1c2ccoc2cc2oc(=O)ccc12 | inconclusive: 31.6 µM [inhibitor, partial curve]
17 | Cc1ccc(S(=O)(=O)c2cc3ccccc3oc2=O)cc1 | inconclusive: 22.4 µM [inhibitor, partial curve]
18 | COc1ccc(OC)c2[nH]c(=O)c(CCNC(=O)c3cc4ccccc4o3)cc12 | inconclusive: 39.8 µM [inhibitor, single point]
19 | COC(=O)CC1[C@@]2(C)C[C@]34OC5(C)OC6(C7CC(=O)OC(c8ccoc8)[C@]7(C)CCC6(O5)[C@]13C)C(OC(C)=O)[C@]4(OC(C)=O)C2OC(C)=O (stereo not given in full) | inactive
20 | CCN(CC)C(=O)c1sc2nc(Cc3ccccc3)[nH]c(=O)c2c1C | inconclusive: 0.708 µM [inhibitor, full curve, poor fit]
21 | CCN1CC(O)=C(c2nc3ccccc3s2)C1=N | inconclusive: 31.6 µM [inhibitor, single point]
22 | COc1cc(C(=O)Oc2ccc3c(OC)c4ccoc4nc3c2OC)cc(OC)c1OC | inactive
23 | CCOc1ccc2oc(=O)cc(C)c2c1 | inconclusive: 31.6 µM [inhibitor, partial curve]
24 | CC(C)(C)C1CCc2onc(C(=O)Nc3cccnc3)c2C1 (stereo not given) | inactive

Row | SMILES | Potency
25 | Cc1cc(C)cc(OCC(=O)Nc2cccc(-c3nnc(-c4ccco4)o3)c2)c1 | inconclusive: 35.5 µM [inhibitor, single point]
26 | O=C(NCc1ccc2c(c1)OCO2)C1CCN(c2ncccn2)CC1 | inconclusive: 31.6 µM [inhibitor, single point]
27 | N#CC1=C(N)Oc2n[nH]c(-c3ccccc3)c2C1c1ccsc1 (stereo not given) | inconclusive: 39.8 µM [inhibitor, single point]
28 | O=C(NNc1c2ccccc2nc2ccccc12)c1cccc(O)c1 | inconclusive: 35.5 µM [inhibitor, single point]
29 | COC(=O)c1[nH]c2ccc(F)cc2c1NC(=O)CCN1CCN(C(=O)c2ccco2)CC1 | inconclusive: 35.5 µM [inhibitor, partial curve]
30 | Cc1cc(C(=O)OCC(=O)NC(C)C)c2ccccc2n1 | inconclusive: 20 µM [inhibitor, single point]
31 | N#Cc1nc(-c2ccccc2F)oc1NCc1ccccc1 | inconclusive: 28.2 µM [inhibitor, partial curve]
32 | COc1ccc(Cc2nc(-c3ccncc3)no2)cc1 | inconclusive: 0.891 µM [inhibitor, full curve, poor fit]
33 | COCCn1nnnc1C(c1cc2cc(OC)ccc2[nH]c1=O)N1CCC(Cc2ccccc2)CC1 (stereo not given) | inconclusive: 14.1 µM [inhibitor, partial curve]
34 | CCOC(OCC)P(=O)(O)CCCNCc1ccc(Cl)c(Cl)c1 | inactive
35 | COc1ccc(Cn2nnnc2C(c2cccs2)N2CCN(c3ccccc3)CC2)cc1 (stereo not given) | inactive
36 | O=C(O)c1ccc(OCc2cn3ccccc3n2)cc1 | inconclusive: 31.6 µM [inhibitor, partial curve]
37 | O=C(Cc1ccc(-n2c(=O)c3ccccc3n(Cc3ccccc3Cl)c2=O)cc1)NCC1CCCO1 (stereo not given) | inconclusive: 25.1 µM [inhibitor, partial curve]
38 | Cc1cc(C)cc(NC(=O)CC2NCCNC2=O)c1 (stereo not given) | inactive
39 | CCCn1c(NC(=O)c2ccc(C)cc2)nc2ccccc21 | inconclusive: 35.5 µM [inhibitor, single point]
40 | CC(C)COCc1ccc(O)c2ncccc12 | active: 20 µM
41 | Cc1nc(C(=O)Nc2ccc(Cl)cc2Cl)nn1-c1cc(OC(C)C)c(Cl)cc1Cl | inconclusive: 31.6 µM [inhibitor, single point]
42 | CCCC(OC(=O)CN1C(=O)COc2ccccc21)C(=O)NC1CCCC1 (stereo not given) | inactive
43 | Cc1cccc(OCC(=O)N/N=C/c2ccc(N(C)C)cc2)c1 | inconclusive: 28.2 µM [inhibitor, partial curve]
44 | CC(=O)c1cc2c(cc1NC(=O)CCNC(=O)c1ccccc1Cl)OCO2 | inconclusive: 25.1 µM [inhibitor, single point]
45 | O=C(NCCc1ccccc1)c1cnc2ccccn2c1=O | inconclusive: 28.2 µM [inhibitor, partial curve]
46 | Cc1ccc(-c2cn3cccnc3n2)cc1 | inconclusive: 28.2 µM [inhibitor, partial curve]
47 | CC(C)(C)C(=O)Nc1cccc(-c2nnc(-c3cccc(NC(=O)C(C)(C)C)c3)o2)c1 | inconclusive: 31.6 µM [inhibitor, partial curve]
48 | CSc1ccc(/C=C/C(=O)c2ccc(NC(=O)C(C)C)cc2)cc1 | inconclusive: 39.8 µM [inhibitor, single point]

Row | SMILES | Potency
49 | c1ccc(-c2csc(Nc3ccc4c(c3)OCCO4)n2)cc1 | inactive
50 | Cc1cc(C)n2nc(C(=O)N/N=C/C=C/c3ccccc3)nc2n1 | inconclusive: 39.8 µM [inhibitor, single point]
51 | COc1ccc(S(=O)(=O)N[C@@H](C)C(=O)OCC(=O)Nc2cc3oc4ccccc4c3cc2OC)cc1 | inconclusive: 35.5 µM [inhibitor, single point]
52 | CC(=O)c1cccc(CN2CCCC(C(=O)c3ccc4c(c3)OCO4)C2)c1 (stereo not given) | inconclusive: 28.2 µM [inhibitor, partial curve]
53 | O=C(O)c1ccc2c(c1Nc1ccccc1)C(=O)c1ccccc1C2=O | inactive
54 | CC(C)CCN(C)c1ccc(/C=N/n2cnnc2)cc1 | inconclusive: 39.8 µM [inhibitor, single point]
55 | COc1ccc2nc(/C=N/NC(=O)[C@H](C)NC(=O)OC(C)(C)C)ccc2c1 | inconclusive: 28.2 µM [inhibitor, partial curve]
56 | CC(C)(C)c1ccc(-c2nnc(N)s2)cc1 | inconclusive: 25.1 µM [inhibitor, single point]
57 | O=C(CCSc1nc(-c2ccc3c(c2)OCO3)cc(C(F)(F)F)n1)NCc1ccco1 | inconclusive: 31.6 µM [inhibitor, partial curve]
58 | Oc1oc(-c2ccccc2Br)nc1/C=N/c1ccccn1 | inconclusive: 39.8 µM [inhibitor, single point]
59 | CCN(C(=O)CCc1nc(-c2ccc(OC)cc2)no1)c1cc(OC)ccc1OC | inconclusive: 39.8 µM [inhibitor, single point]
60 | O=S(=O)(O)c1nc2ccccc2n1CCOc1ccccc1 | inactive
61 | COc1ccccc1NS(=O)(=O)c1cc(NC(=O)c2[nH]c(C)c(C(C)=O)c2C)ccc1N1CCOCC1 | inactive
62 | CCOc1ccc(-c2cc(C(=O)O)c3ccccc3n2)c(OCC)c1 | inconclusive: 28.2 µM [inhibitor, partial curve]
63 | Fc1cccc(Nc2cc(-n3cccn3)ncn2)c1 | inconclusive: 11.2 µM [inhibitor, partial curve]
64 | CN(C)c1cc[n+](CC(=O)N2c3ccccc3Sc3ccccc32)cc1 | inactive
65 | CN(Cc1nc(-c2cnccn2)no1)Cc1cccc2ccccc12 | inconclusive: 22.4 µM [inhibitor, partial curve]
66 | CC1CCc2c(sc3nc(CN4CCOCC4)nc(N4CCc5ccccc5C4)c23)C1 (stereo not given) | inconclusive: 39.8 µM [inhibitor, single point]
67 | COC(=O)c1[nH]c2ccccc2c1NC(=O)CN1CCC(C(N)=O)(N2CCCCC2)CC1 | inconclusive: 22.4 µM [inhibitor, partial curve]
68 | CC(C)=CCC/C(C)=C/COc1c2occc2cc2ccc(=O)oc12 | inconclusive: 31.6 µM [inhibitor, partial curve, poor fit]
69 | COc1ccc(-c2nc(NC(=O)C3=NN(c4cccc(C)c4)C(=O)CC3)sc2C)cc1 | inactive
70 | COc1cc(-c2c(C#N)c(N)nc(SCc3ccncc3)c2C#N)cc(OC)c1OC | inconclusive: 39.8 µM [inhibitor, single point]
